23 compounds from the supplement of paper PMC4604168 (melanoma cell lines) can be followed below.

The structures appear in SMILES notation. Some of the results follow. Single values are uncertain, as repeats are few or missing.
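Further: cells treated in 1,536-well plates, then fixed and DAPI-stained, with nuclei counted from automated high-throughput microscope images.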

This experiment deals with WM3619. Nature of the experiment: cell count relative to DMSO control; melanoma cells; higher = more viable cells. The conditions noted are these: library dose: standard library concentration; 72 h.
Take `Cc1ccc(NC(=O)c2cccc(N(C)C)c2)cc1NC(=O)c1ccc(O)cc1` + CN(NC(=O)CC(=O)NN(C)C(=S)c1ccccc1)C(=S)c1ccccc1 [STA4783] (first compound 10 µM, partner dose 0.03 µM): the cell count was determined as 10.3%.

On to `CCCCCCCCc1ccc(CCC(N)(CO)CO)cc1` [fingolimod] + O=C(Nc1cccc(Cl)c1)Nc1ncc(CCNc2ncnc3ccsc23)s1 [SNS314] (first compound 10 µM, partner dose 0.004 µM), for which the cell count was 5.5%.

The compound `Cc1ccc(NC(=O)c2cccc(N(C)C)c2)cc1NC(=O)c1ccc(O)cc1` + Cc1cc(N2CCOCC2)cc2[nH]c(-c3c(NC[C@@H](O)c4cccc(Cl)c4)cc[nH]c3=O)nc12 [BMS536924] (first compound 10 µM, partner dose 1 µM) returned a cell count of 76.7%.

Regarding `NC(=O)c1ccc(N(C(N)=O)c2c(F)cccc2F)nc1-c1ccc(F)cc1F` + CC1(C)NC(=O)N(c2ccc([N+](=O)[O-])c(C(F)(F)F)c2)C1=O [nilutamide] (first compound 2 µM, partner dose 5 µM), the cell count was 75.2%.

On to `NC(=O)c1ccc(N(C(N)=O)c2c(F)cccc2F)nc1-c1ccc(F)cc1F` + CN(C)S(=O)(=O)c1ccc2c(c1)/C(=C/c1cc3c([nH]1)CCCC3)C(=O)N2 [SU6656] (first compound 2 µM, partner dose 2 µM), for which the cell count turned out to be 94.4%.

Consider `NC(=O)c1ccc(N(C(N)=O)c2c(F)cccc2F)nc1-c1ccc(F)cc1F` + COc1cc2c(Oc3ccc4[nH]c(C)cc4c3F)ncnc2cc1OCCCN1CCCC1 [cediranib] (first compound 2 µM, partner dose 2 µM), for which the cell count was found to be 80%.

With `CN(NC(=O)CC(=O)NN(C)C(=S)c1ccccc1)C(=S)c1ccccc1` + COc1cc2c(Oc3ccc4[nH]c(C)cc4c3F)ncnc2cc1OCCCN1CCCC1 [cediranib] (first compound 0.03 µM, partner dose 2 µM), the cell count came to 14.3%.

Compound `CCCCCCCCc1ccc(CCC(N)(CO)CO)cc1` [fingolimod] + CC(C)(C)c1cnc(CSc2cnc(NC(=O)C3CCNCC3)s2)o1 [SNS-032] (first compound 10 µM, partner dose 0.05 µM) showed a cell count of 3.4%.

With `NC(=O)c1ccc(N(C(N)=O)c2c(F)cccc2F)nc1-c1ccc(F)cc1F` + C=CCn1c(=O)c2cnc(Nc3ccc(N4CCN(C)CC4)cc3)nc2n1-c1cccc(C(C)(C)O)n1 [MK1775] (first compound 2 µM, partner dose 0.1 µM), the cell count came to 67.2%.

Take `Cc1ccc(NC(=O)c2cccc(N(C)C)c2)cc1NC(=O)c1ccc(O)cc1` + OCCn1cc(-c2cnc3nnn(Cc4ccc5ncccc5c4)c3n2)cn1 [PF04217903] (first compound 10 µM, partner dose 5 µM): the cell count is 100%.

On to `CCCCCCCCc1ccc(CCC(N)(CO)CO)cc1` [fingolimod] + CN(C)S(=O)(=O)c1ccc2c(c1)/C(=C/c1cc3c([nH]1)CCCC3)C(=O)N2 [SU6656] (first compound 10 µM, partner dose 2 µM), for which the cell count came to 14.4%.

Compound `NC(=O)c1ccc(N(C(N)=O)c2c(F)cccc2F)nc1-c1ccc(F)cc1F` + NC(=O)Nc1cc(-c2cccc(F)c2)sc1C(=O)N[C@H]1CCCNC1 [AZD7762] (first compound 2 µM, partner dose 0.1 µM) came in with a cell count of 15.6%.

As for `Cc1ccc(NC(=O)c2cccc(N(C)C)c2)cc1NC(=O)c1ccc(O)cc1` + O=C(O)c1ccc(-c2c[nH]c3ncc(-c4ccccc4)cc23)cc1C1CCCC1 [GSK650394] (first compound 10 µM, partner dose 0.8 µM), the cell count came to 86.5%.

Consider `NC(=O)c1ccc(N(C(N)=O)c2c(F)cccc2F)nc1-c1ccc(F)cc1F` + Cc1cc(N2CCOCC2)cc2[nH]c(-c3c(NC[C@@H](O)c4cccc(Cl)c4)cc[nH]c3=O)nc12 [BMS536924] (first compound 2 µM, partner dose 1 µM), for which the cell count came out at 104%.

For the compound `Cc1ccc(NC(=O)c2cccc(N(C)C)c2)cc1NC(=O)c1ccc(O)cc1` + CO[C@@H]1[C@H](N(C)C(=O)c2ccccc2)C[C@H]2O[C@]1(C)n1c3ccccc3c3c4c(c5c6ccccc6n2c5c31)C(=O)NC4 [Midostaurin] (first compound 10 µM, partner dose 0.4 µM), the cell count worked out at 69.4%.

`CC(C)(C)c1cnc(CSc2cnc(NC(=O)C3CCNCC3)s2)o1` + O=C(O)c1ccc(-c2c[nH]c3ncc(-c4ccccc4)cc23)cc1C1CCCC1 [GSK650394] (first compound 0.05 µM, partner dose 0.8 µM) registered a cell count of 67.4%.

Compound `CC(C)(C)c1cnc(CSc2cnc(NC(=O)C3CCNCC3)s2)o1` + CN(C)S(=O)(=O)c1ccc2c(c1)/C(=C/c1cc3c([nH]1)CCCC3)C(=O)N2 [SU6656] (first compound 0.05 µM, partner dose 2 µM) yielded a cell count of 77.1%.

`NC(=O)c1ccc(N(C(N)=O)c2c(F)cccc2F)nc1-c1ccc(F)cc1F` + O=C(O)c1ccc(-c2c[nH]c3ncc(-c4ccccc4)cc23)cc1C1CCCC1 [GSK650394] (first compound 2 µM, partner dose 0.8 µM) displayed a cell count of 97%.

The compound `CCCCCCCCc1ccc(CCC(N)(CO)CO)cc1` [fingolimod] + C=CCn1c(=O)c2cnc(Nc3ccc(N4CCN(C)CC4)cc3)nc2n1-c1cccc(C(C)(C)O)n1 [MK1775] (first compound 10 µM, partner dose 0.1 µM) had a cell count of 4.42%.

`NC(=O)c1ccc(N(C(N)=O)c2c(F)cccc2F)nc1-c1ccc(F)cc1F` + Cc1ccc(NC(=O)c2cccc(N(C)C)c2)cc1NC(=O)c1ccc(O)cc1 [ZM336372] (first compound 2 µM, partner dose 10 µM) registered a cell count of 91.9%.

With `CC(C)(C)c1cnc(CSc2cnc(NC(=O)C3CCNCC3)s2)o1` + Cc1cc(N2CCOCC2)cc2[nH]c(-c3c(NC[C@@H](O)c4cccc(Cl)c4)cc[nH]c3=O)nc12 [BMS536924] (first compound 0.05 µM, partner dose 1 µM), the cell count came out at 65.4%.

The compound `Cc1ccc(NC(=O)c2cccc(N(C)C)c2)cc1NC(=O)c1ccc(O)cc1` + Cn1cncc1[C@@](N)(c1ccc(Cl)cc1)c1ccc2c(c1)c(-c1cccc(Cl)c1)cc(=O)n2C [tipifarnib] (first compound 10 µM, partner dose 0.05 µM) had a cell count of 104%.

Take `CCCCCCCCc1ccc(CCC(N)(CO)CO)cc1` [fingolimod] + O=C(CCCCCCC(=O)Nc1ccccc1)NO [vorinostat] (first compound 10 µM, partner dose 0.4 µM): the cell count is 1.71%.
